Test results: the supplement of paper PMC12217912
Some of the results follow. Sequences were assembled here from the parent chain. Inactive controls read about 0.05.

B1: TEV protease; numbered along this chain (parent)
chain: MGESLFKGPRDYNPISSSICHLTNESDGHTTSLYGIGFGPFIITNKHLFRRNNGTLVVQSLHGVFKVKDTTTLQQHLVDGRDMIIIRMPKDFPPFPQKLKFREPQREERICLVTTNFQTKSMSSMVSDTSCTFPSGDGIFWKHWIQTKDGQCGSPLVSTRDGFIVGIHSASNFTNTNNYFTSVPKNFMELLTNQEAQQWVSGWRLNADSVLWGGHKVFMVKPEEPFQPVKEATQL

Variants of: B1
Test: raw area under fraction-flipped curve 0-4 h after induction (AUC4h, not background-subtracted), DNA-recorder readout of cleavage of the substrate (dimensionless); higher = more cleavage of the substrate by the protease variant
Settings: temperature: 34 °C; time window: 0-4 h after rhamnose induction
Description: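 In vivo DNA recorder in E. coli TOP10(DE3) ΔrhaA at 34 °C. Each TEVp single-site mutant (parent TEVp 0) is paired with a single-site variant of the 7-mer TEVs (canonical ENLYFQ|S). The substrate sits between flexible linkers in a Bxb1-sfGFP-TEVs-SsrA fusion, so cleavage stabilises Bxb1 and speeds flipping of a recombination array, read by NGS. The value is the raw area under the fraction-flipped curve over 0-4 h after rhamnose induction (AUC4h), with ≥20 reads per time point. It is not background-subtracted; inactive controls average about 0.047.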
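Also: Bxb1 expression induced with 0.2% (w/v) L-rhamnose at OD600 near 0.5, cultures sampled hourly, flipped fraction per protease–substrate barcode pair counted by paired-end Illumina sequencing.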

Row | Variant | area with substrate CNLYFQS | area with substrate DNLYFQS | area with substrate FNLYFQS | area with substrate GNLYFQS | area with substrate HNLYFQS | area with substrate INLYFQS | area with substrate KNLYFQS | area with substrate LNLYFQS | area with substrate MNLYFQS | area with substrate NNLYFQS | area with substrate PNLYFQS | area with substrate QNLYFQS | area with substrate RNLYFQS | area with substrate TNLYFQS | area with substrate VNLYFQS | area with substrate WNLYFQS | area with substrate SNLYFQS | area with substrate YNLYFQS
1 | MGESLFKGPRDYNPISSSICHLTNESDGHTTSLYGIGFGPFIITNKHLFRRNNGTLVVQHLHGVFKVKDTTTLQQHLVDGRDMIIIRMPKDFPPFPQKLKFREPQREERICLVTTNFQTKSMSSMVSDTSCTFPSGDGIFWKHWIQTKDGQCGSPLVSTRDGFIVGIHSASNFTNTNNYFTSVPKNFMELLTNQEAQQWVSGWRLNADSVLWGGHKVFMVKPEEPFQPVKEATQL [S60H] | 0.08 | 0.0595 | 0.0671 | 0.0692 | 0.0568 | 0.0616 | 0.0831 | 0.0642 | 0.0452 | 0.0706 | 0.0676 | 0.0642 | 0.0556 | 0.0662 | 0.0564 | 0.0677 |  | 
2 | MGESLFKGPRDYNPISSSICHLTNESDGHTTSLYGIGFGPFIITNKHLFRRNNGTLVVQKLHGVFKVKDTTTLQQHLVDGRDMIIIRMPKDFPPFPQKLKFREPQREERICLVTTNFQTKSMSSMVSDTSCTFPSGDGIFWKHWIQTKDGQCGSPLVSTRDGFIVGIHSASNFTNTNNYFTSVPKNFMELLTNQEAQQWVSGWRLNADSVLWGGHKVFMVKPEEPFQPVKEATQL [S60K] | 0.0707 | 0.0631 | 0.0538 | 0.057 | 0.0549 | 0.0671 |  | 0.0766 | 0.0638 |  | 0.056 |  |  | 0.0673 | 0.0518 | 0.0412 | 0.0707 | 0.0482
3 | MGESLFKGPRDYNPISSSICHLTNESDGHTTSLYGIGFGPFIITNKHLFRRNNQTLVVQSLHGVFKVKDTTTLQQHLVDGRDMIIIRMPKDFPPFPQKLKFREPQREERICLVTTNFQTKSMSSMVSDTSCTFPSGDGIFWKHWIQTKDGQCGSPLVSTRDGFIVGIHSASNFTNTNNYFTSVPKNFMELLTNQEAQQWVSGWRLNADSVLWGGHKVFMVKPEEPFQPVKEATQL [G54Q] | 0.0599 | 0.0527 | 0.0579 | 0.0656 | 0.0514 | 0.0551 | 0.0484 | 0.0572 | 0.0583 | 0.0114 | 0.0482 |  | 0.0478 | 0.062 | 0.0545 | 0.0584 | 0.0494 | 0.0418
4 | MGESLFKGPRDYNPISSSICHLTNESDGHTTSLYGIGFGPFIITNKHLFRRNNVTLVVQSLHGVFKVKDTTTLQQHLVDGRDMIIIRMPKDFPPFPQKLKFREPQREERICLVTTNFQTKSMSSMVSDTSCTFPSGDGIFWKHWIQTKDGQCGSPLVSTRDGFIVGIHSASNFTNTNNYFTSVPKNFMELLTNQEAQQWVSGWRLNADSVLWGGHKVFMVKPEEPFQPVKEATQL [G54V] | 0.0601 | 0.0667 | 0.0523 |  | 0.0541 | 0.0594 | 0.0602 | 0.0612 |  | 0.0576 | 0.0649 |  |  | 0.065 |  | 0.0527 | 0.0483 | 0.0589
5 | MGESLFKGPRDYNPISSSICHLTNESDGHTTSLYGIGFGPFIITNKHLFHRNNGTLVVQSLHGVFKVKDTTTLQQHLVDGRDMIIIRMPKDFPPFPQKLKFREPQREERICLVTTNFQTKSMSSMVSDTSCTFPSGDGIFWKHWIQTKDGQCGSPLVSTRDGFIVGIHSASNFTNTNNYFTSVPKNFMELLTNQEAQQWVSGWRLNADSVLWGGHKVFMVKPEEPFQPVKEATQL [R50H] | 0.0716 | 0.0814 |  | 0.0795 | 0.0797 | 0.0708 |  | 0.0786 |  | 0.0567 | 0.0898 | 0.0835 |  | 0.104 |  |  |  | 0.066
6 | MGESLFKGPRDYNPISSSICHLTNESDGHTTSLYGIGFGPFIITNKHLFPRNNGTLVVQSLHGVFKVKDTTTLQQHLVDGRDMIIIRMPKDFPPFPQKLKFREPQREERICLVTTNFQTKSMSSMVSDTSCTFPSGDGIFWKHWIQTKDGQCGSPLVSTRDGFIVGIHSASNFTNTNNYFTSVPKNFMELLTNQEAQQWVSGWRLNADSVLWGGHKVFMVKPEEPFQPVKEATQL [R50P] | 0.0791 | 0.0711 | 0.0556 | 0.053 | 0.0664 | 0.0563 | 0.0598 | 0.0654 | 0.0725 | 0.0593 | 0.0654 | 0.0582 |  | 0.0657 | 0.0575 | 0.056 |  | 0.0721
7 | MGESLFKGPRDYNPISSSICHLTNESDGHTTSLYGIGFGPFIITNKHLFKRNNGTLVVQSLHGVFKVKDTTTLQQHLVDGRDMIIIRMPKDFPPFPQKLKFREPQREERICLVTTNFQTKSMSSMVSDTSCTFPSGDGIFWKHWIQTKDGQCGSPLVSTRDGFIVGIHSASNFTNTNNYFTSVPKNFMELLTNQEAQQWVSGWRLNADSVLWGGHKVFMVKPEEPFQPVKEATQL [R50K] | 0.0548 | 0.0721 |  | 0.0532 | 0.0691 | 0.0696 |  | 0.0579 |  | 0.0562 | 0.0958 |  | 0.0683 | 0.0656 | 0.074 | 0.0452 |  | 0.0557
8 | MGESLFKGPRDYNPISSSICHLTNESDGHTTSLYGIGFGPFIITNKHLFRRNVGTLVVQSLHGVFKVKDTTTLQQHLVDGRDMIIIRMPKDFPPFPQKLKFREPQREERICLVTTNFQTKSMSSMVSDTSCTFPSGDGIFWKHWIQTKDGQCGSPLVSTRDGFIVGIHSASNFTNTNNYFTSVPKNFMELLTNQEAQQWVSGWRLNADSVLWGGHKVFMVKPEEPFQPVKEATQL [N53V] | 0.0668 | 0.0657 |  |  | 0.0595 |  |  |  |  | 0.0835 | 0.0727 | 0.0464 |  | 0.0539 |  | 0.0542 | 0.063 | 0.0585
9 | MGESLFKGPRDYNPISSSICHLTNESDGHTTSLYGIGFGPFIITNKHLFRRNCGTLVVQSLHGVFKVKDTTTLQQHLVDGRDMIIIRMPKDFPPFPQKLKFREPQREERICLVTTNFQTKSMSSMVSDTSCTFPSGDGIFWKHWIQTKDGQCGSPLVSTRDGFIVGIHSASNFTNTNNYFTSVPKNFMELLTNQEAQQWVSGWRLNADSVLWGGHKVFMVKPEEPFQPVKEATQL [N53C] | 0.0539 | 0.0787 |  | 0.0528 | 0.0757 |  | 0.052 | 0.0799 |  |  | 0.0644 | 0.0626 |  | 0.0652 | 0.0775 | 0.0616 | 0.0652 | 0.0515
